# Laboratory results published in PubChem BioAssay (NCI).
# Some structures have more than one record in an assay (separate samples or runs), and their calls can disagree.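 Percent growth is the endpoint: 0 to 100 indicates growth inhibition (40 means 60% inhibition), 0 means no net growth, and negative values indicate cell death.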 Some entries of the source have several records that differ or are many. This list holds those alone. The source may hold further records. This drug was run again and again over the years, at its own concentration, as given; one value stands for one run. Counts like (3×) give the number of equal values in this list. Entries with a single value are a further part of the results. Rule for the calls: active = growth percent below 10; inactive = the rest.
# Legend:
# [1] = system: HCC-2998 colon; test: NCI-60 one-dose screen, 48 h (100 = growth as untreated, 0 = no growth, -100 = all killed)
# [2] = system: KM12 colon; test: as above; details: 0.25 µM
structure (smiles),measurement,setting,value
COc1cccc2c1C(=O)c1c(O)c3c(c(O)c1C2=O)C[C@@](O)(C(=O)CO)C[C@@H]3OC1CC(N)C(O)C(C)O1 (some centres undefined),growth,"[1]; 0.25 µM, runs of 2022","active: -3.4%, 4.87%, -16% and inactive: 47.9, 41.6, 49.4, 21.1, 44.6, 42.3, 53.7, 43.5, 46.9, 48 (2×), 59.1, 35.7, 34.2, 49.6, 76.5, 78.3, 84.1, 75.6, 95.2, 46.5, 47.7, 53, 54.6%"
same,growth,"[1]; 25 µM, runs of 1991","active: -56, -76.1, -38.1, -72.1, -83.1, -76.7, -86.1, -76.5, -90.1, -96.5, -57, -81, -92.8, -85.6, -85.5, -89.5, -88.8, -79.7%"
same,growth,"[1]; 25 µM, runs of 1992","active: -80.4, -84.8, -83, -50.4, -56.6, -96, -62.3, -81.3, -77.5, -83.2 (2×), -75.7, -71.7, -96.2, -91.7, -72.5, -84.4, -95.9 (2×), -82.4, -59.4, -72, -83.4, -95.6, -88.4, -92, -95.1, -91, -88.6 (2×), -100 (4×), -69.1, -85.4, -94.6, -83.9 (2×), -96.3 (3×), -71.1, -78.4, -95.7, -94.2 (3×), -78.6, -96.8 (2×), -88.8, -94.8 (2×), -88.5, -89.5, -91.5, -88.2, -85.5, -81.2, -94.9, -94, -84.9 (2×), -93, -79.8, -87.7, -89.1 (3×), -97.7, -79, -92.4, -92.5, -92.2, -85.7, -92.8 (2×), -83.6, -90.6, -87.5, -73.3, -59.9, -87.3, -98.3 (2×), -80.3, -92.6, -91.2, -82.1, -72.1, -81.4, -98.5, -94.3, -93.3, -95.3, -94.7, -89.7, -98.9, -93.9, -89.8, -97.2 (3×), -94.1, -79.5, -96.9, -84.2, -54.2, -26.3, -78.7, -80.2, -92.9, -84.6, -45.7%"
same,growth,"[1]; 25 µM, runs of 1993","active: -87.5, -94.5, -91.6, -70.2, -43.1, -95.8, -93.2, -37.2, -83.6, -97.4, -64.5, -96.2, -95.2, -95.4, -89.6, -15.5, -22.3, -76.5, -82.2, -76, -100, -96.9, -23.9, -62.6, -16.7, -63, -67.8 (2×), -97.5, -70.9, -55.1, -73.8, -13.9, -81.9, -43.9, -65.1, -86.1, -42.8, -65.9, -59.9, -78.9, -49, -92.1, -60.7, -30.4, -99.2%"
same,growth,"[1]; 25 µM, runs of 1994","active: -5.8, -26.8, -80, -94.5, -34.4, -61.6, -91, -84.9, -65.6, -83.8, -18.5, -98.5, -79.5, -30.9, -79.6, 2.27, -88.7, -93.3, -81.3, -54.3, -91.3, -53.5, -68.5, -76.9, -85.4, -23, -72.5, -78.9, 2.5, -85.5, -83.4% and inactive: 108%, 28.5%"
same,growth,"[1]; 25 µM, runs of 1995","active: -24.4, -69.3, -92, -79.8 (2×), -97.5, -85.3, -87.6, -43.2, -65.7, -88.6, -83.9 (2×), -82.6, -88.7 (2×), -66.4, -69.1, -88.1, -56.3 (2×), -100 (2×), -44.2, -74.9, -62.7, -65, -90.1, -78.9, -41.6, -82, -86.3, -94.9, -73.1, -73.5, -95% and inactive: 10.7%"
same,growth,"[1]; 25 µM, runs of 1996","active: -73.2, -93.8, -97.5, -67.7, -82.6, -87.6, -69.1 (2×), -67.9, -89.1, -97, -65.4, -77.3, -88.9, -85.1, -85.6, -75.4 (2×), -93, -94.3, -78.2, -77.7, -88.3, -90.9 (2×), -98.9, -82.8, -81.7, -89.9, -97.1, -99.8, -96.2, -89, -84, -94 (2×), -95.2, -97.7, -53.5, -77.4, -89.5 (2×), -83.3, -55.5, -40.5, -86.9, -83.9, -74.2, -44.2% and inactive: 108%"
same,growth,"[1]; 25 µM, runs of 1997","active: -55 (2×), -86.4, -75.8, -29.2, -74.7, -57.2, -46.9, -62.1, -87.8 (2×), -72.2, -25.7, -16, -79.3, -95.8, -83, -59.3, -77.5, -77.7, -83.3, -36.3, -74, -66.5, -84.1, -18.6, -93.8, 6.8, -21.8, -19.9, -12.1, -33.4% and inactive: 12.2%"
same,growth,"[1]; 25 µM, runs of 1998","active: -42.3, -66.4, -36.2, -28.3, 3.35, -82, -71.5, -36.1, -46.3, -2.53, -54.9, -79.2, -33.7, 2.79, -67.1, -79.9, -77.2, -18.8, -70.7, -14.6, -77.9% and inactive: 29.6%, 11.4%"
same,growth,"[1]; 25 µM, runs of 1999","active: -100 (6×), -93.3, -66.3, -96.9, -81.7, -83.9, 2.83, -41.4, 2.77%"
same,growth,"[1]; 25 µM, runs of 2000",active: -100% (2×)
same,growth,[2]; runs of 2006,"inactive: 61%, 50.3%"
same,growth,[2]; runs of 2007,"inactive: 58.6 (2×), 64.5, 57.4, 48.4 (2×), 58.5, 50.3, 59.8 (2×), 55.1, 51.9, 55.4, 64.8, 57.8, 65.1, 50.1, 50.4, 51.5, 65.4, 46.2, 51.4, 57.5 (2×), 62.7, 52.4, 56.7, 60.9, 63.2, 60.5, 57.2, 48.7, 60.2, 64.9, 64.4 (2×), 68.7, 72.3, 38.2, 56.8, 43.9, 60.8, 54, 43% and active: 0.124%"
same,growth,[2]; runs of 2008,"inactive: 62.3, 55.2, 61.2, 59.8, 56.1, 57.7, 61.7, 50.5, 57.8, 59, 64.1, 59.3, 53.3 (2×), 59.6 (2×), 54.3, 31.9, 45.8 (2×), 46.5, 45.9, 48.5, 29.4, 41.3, 32.9, 36.5, 33.6, 38.7, 49.5, 40.5, 107, 55.1, 27.6, 49, 48.6, 22, 47.3, 21, 49.7, 43, 39.5, 32.5, 47.4, 57.5, 56.3, 62.1, 62.2, 71.8, 67.7, 44.1, 45.6, 56.7, 59.4, 50.4, 44.5, 60.9%"
same,growth,[2]; runs of 2009,"inactive: 44.1, 47.4 (2×), 52.7, 46.6, 48.2, 52.8, 62.3, 72, 46.2, 54.2, 50.9, 61.9, 58.1, 60.7, 59.2 (2×), 60.2 (3×), 59.7, 53.6 (2×), 58.2, 58.7, 57, 46.7, 47.3, 53, 61.1, 64.8, 51.6, 61, 57.8, 70.8, 56.8 (2×), 62.1, 54.9, 57.9, 26, 54.6, 50.6, 48.8, 64.4 (2×), 62.8, 55.5, 53.8, 39.5, 50.1, 28, 21.1, 41.3, 47.1, 52.2, 40, 63.3, 71.1, 56.1, 55.4, 46.4, 76.9, 57.5, 65.8, 62.2, 56.5, 60.6, 56.4%"
same,growth,[2]; runs of 2010,"inactive: 63.7, 55, 55.4, 54.6, 62.1, 63.9, 57.2, 59.1, 60.8, 62.4 (3×), 64.1, 53.2, 67.2, 60.7, 54.3, 58.9, 60.2, 50.4, 58.5 (2×), 50.1 (2×), 67.9, 64, 50.7, 59.8, 59.2 (2×), 55.6, 39.2, 51.5, 49.3, 63.4, 61.3, 64.8, 54.2, 53, 56.7, 55.2, 67.6, 52, 74.8, 64.5, 63.1, 64.6, 68.4, 58.8, 57.9%"
same,growth,[2]; runs of 2011,"inactive: 60.3, 62, 60.7 (2×), 62.2 (2×), 62.9, 61.4, 68.5, 61.1, 59.1, 56.8 (2×), 64.1, 55.9, 61 (2×), 56.9, 65.8 (2×), 67.1 (2×), 72.9, 67, 69.7, 72.5, 73, 69.2, 64.3 (2×), 69.9, 76.7, 77.7, 70.8, 54.6, 65.6, 59.7, 44.4, 55.5, 59.8, 54.1, 65.7, 60.5, 59, 61.6, 51, 57.1, 55.2, 58.9, 41.1, 59.2, 65.2, 78, 67.8, 67.9, 73.1, 74.1, 63.8, 54.7%"
same,growth,[2]; runs of 2012,"inactive: 67.3, 53.9, 59.4, 50.9 (2×), 68.2, 60.9, 62.9 (2×), 66.9 (2×), 66.1, 57.4, 56.7, 53.8, 43.6, 58.6, 53.5, 55.7, 63.7, 57.5, 53.1, 55.8, 59, 61.9, 63.5, 68.5, 64.6, 69.8 (2×), 71 (2×), 70.1, 62.8, 73.2, 63.8, 65.7 (2×), 72.8, 73.1, 62.4, 69.4, 62.6, 74, 75.5 (2×), 80.7, 71.4, 81.5, 81.4, 73.8, 72.5, 76.2, 68.1, 57.1, 58.2, 63.1, 49.5, 54.8, 59.6, 69.5, 60.6, 67.5, 46.1, 60.8, 34.4%"
same,growth,[2]; runs of 2013,"inactive: 59.4, 44.4 (2×), 47.1, 55.9, 68, 59.5, 69.1 (2×), 70.1, 70.8, 71, 60.5, 69.7, 58.4 (3×), 71.3, 67.3 (4×), 57.7 (2×), 73 (2×), 79.7, 75, 63.8, 50.7, 58.8, 60.4, 75.2 (2×), 65.8 (2×), 74.6, 72.4, 67.9, 65.7, 64.3, 61.1, 57.9, 59.6, 63.7 (2×), 67.6, 62.9, 56.4 (2×), 68.9, 68.5, 56.5, 60.9, 62.4, 54.9, 39.5, 48.4, 49.2, 55.6 (2×), 58.1, 48.9, 57.4, 44.9, 51.6%"
